Publication PMC4336329 (PLoS ONE, 2015)
Hit rate of the full screen: of about 310,000 compounds, about 2,200 (0.71%) showed an effect of 50% or more. The effect is printed as a negative number. Some of the results follow.

Biological target: human ether-à-go-go-related gene (hERG) potassium channel (human, UniProt Q12809)
Test: primary screen, population patch clamp on CHO cells stably expressing hERG

Chain of human ether-à-go-go-related gene (hERG) potassium channel (Q12809 whole entry, looked up): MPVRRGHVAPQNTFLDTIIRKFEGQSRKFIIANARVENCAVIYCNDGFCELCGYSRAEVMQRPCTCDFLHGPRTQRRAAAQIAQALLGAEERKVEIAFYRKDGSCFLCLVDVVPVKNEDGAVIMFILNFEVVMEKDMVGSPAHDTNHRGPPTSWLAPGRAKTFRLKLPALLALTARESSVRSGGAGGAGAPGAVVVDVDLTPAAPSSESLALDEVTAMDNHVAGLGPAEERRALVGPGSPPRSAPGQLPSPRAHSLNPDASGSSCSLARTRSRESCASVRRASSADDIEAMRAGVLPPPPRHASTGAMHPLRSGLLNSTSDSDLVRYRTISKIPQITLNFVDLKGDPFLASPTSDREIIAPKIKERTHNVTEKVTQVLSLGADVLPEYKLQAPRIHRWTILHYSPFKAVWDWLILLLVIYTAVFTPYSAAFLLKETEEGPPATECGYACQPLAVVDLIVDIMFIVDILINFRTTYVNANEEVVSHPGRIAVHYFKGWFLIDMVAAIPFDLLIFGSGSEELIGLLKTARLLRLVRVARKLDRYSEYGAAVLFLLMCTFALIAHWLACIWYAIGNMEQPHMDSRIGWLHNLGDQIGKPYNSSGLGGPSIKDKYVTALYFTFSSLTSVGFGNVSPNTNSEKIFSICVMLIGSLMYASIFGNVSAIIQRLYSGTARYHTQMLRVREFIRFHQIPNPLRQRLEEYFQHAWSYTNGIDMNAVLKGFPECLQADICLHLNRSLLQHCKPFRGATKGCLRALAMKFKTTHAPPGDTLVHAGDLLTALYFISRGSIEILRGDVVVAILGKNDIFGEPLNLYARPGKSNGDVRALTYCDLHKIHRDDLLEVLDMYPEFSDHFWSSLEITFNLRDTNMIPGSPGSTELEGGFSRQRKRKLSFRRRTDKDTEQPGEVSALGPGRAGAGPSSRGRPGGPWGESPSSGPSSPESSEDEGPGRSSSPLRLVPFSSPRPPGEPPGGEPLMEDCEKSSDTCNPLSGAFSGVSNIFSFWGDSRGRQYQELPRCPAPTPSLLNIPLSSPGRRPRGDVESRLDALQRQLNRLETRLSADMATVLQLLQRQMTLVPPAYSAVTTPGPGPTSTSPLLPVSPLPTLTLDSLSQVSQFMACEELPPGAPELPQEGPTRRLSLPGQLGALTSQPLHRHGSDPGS

SMILES	hERG current change (%, negative = inhibition) at 1uM
O=C(CN1CCc2ccccc21)NC(=O)NCc1ccccc1	7.58%
Cc1cccc(NC(=O)CCNS(=O)(=O)c2cc(Br)cnc2N)c1C	2.32%
C[N+]1(C)[C@@H]2CC[C@H]1CC(OC(=O)C(c1ccccc1)c1ccccc1)C2.[I-] (some centres unmarked)	14.4%
O=C(Cc1ccccc1)N/N=C/c1ccc(S(=O)(=O)[O-])o1	1.68%
C/C(=N\OC(=O)c1c(-c2ccccc2Cl)noc1C)c1nccs1	-5.38%
Cc1cc(Nc2ccc3c(c2)OCCO3)n2ncnc2n1	-5.65%
CCOC(=O)CNC(=O)CNC(=O)c1nn(-c2ccc(OC)c(Cl)c2)c(=O)c2ccccc12	11.4%
O=C(CSc1ncn[nH]1)NCCc1ccc(Cl)cc1	0.344%
CCOc1ccccc1C1C(C(=O)Nc2ccc(OC)cc2)=C(C)Nc2nc(CCCO)nn21 (centres unmarked)	2.64%
COc1cc(NC(=O)C2CC(c3cccc(OC)c3OC)=NO2)cc(OC)c1OC (centres unmarked)	-5.9%
CCN(CC)S(=O)(=O)c1ccc(NS(=O)(=O)c2ccc3oc(=O)[nH]c3c2)cc1	18%
COc1ccccc1N1CCN(C(=O)CN(c2cc(C)cc(C)c2)S(C)(=O)=O)CC1	7.84%
CC(NC(=O)c1cccnc1)C(c1cccs1)N1CCN(c2ccccc2F)CC1 (centres unmarked)	9.11%
COc1ccc(C)cc1N(C(=O)c1snc(C(N)=O)c1N)C(C(=O)NC1CCCC1)c1ccc(F)cc1 (centres unmarked)	7.96%
Cn1c(=O)oc2cc(S(=O)(=O)NCCCN3CCCC3=O)ccc21	17.9%
CCC(=O)Nc1ccc(S(=O)(=O)N2CCOCC2)cc1	1.54%
CC1=NN(c2ccc(C)cc2)C(=O)/C1=C\C=C\c1ccccc1	7.48%
CC(=O)N1CCc2cc(Br)cc(S(=O)(=O)N3CCCCCC3)c21	0.744%
O=C(CCc1ccccc1)N1CCN(c2ccc(Cl)cc2)CC1	-13.9%
O=S(=O)(Nc1ncccn1)c1ccc(NC(=S)NCc2ccco2)cc1	8.76%
COc1cc(/C=C2\SC(=N)N(c3ccc4c(c3)OCO4)C2=O)cc(OC)c1O	3.82%
CCC(=O)NC(c1ccco1)c1cc(Cl)c2cccnc2c1OC (centres unmarked)	-0.832%
C=CCOc1ccccc1OCC(O)CNC(C)C.Cl (centres unmarked)	2.92%

SMILES	hERG current change (%, negative = inhibition) at 1uM
O=C(NCc1ccccn1)c1ccc(=O)oc1	1.12%
O=C(c1nc2ccccn2c1CN1CCCC(c2nc3ccccc3o2)C1)N1CCCC1 (centres unmarked)	20.4%
CC(=O)N1CCN(c2ccc(NCc3cccs3)cc2)CC1	16.8%
CSc1ccc(/C=N\NC(=O)CNc2ccc(C)cc2)cc1	0.15%
Cc1ccc(-n2c(C)nc3c(cnn3-c3ccc(F)cc3)c2=O)cc1C	16.7%
Cc1cc(C)cc(NC(=O)Nc2ccc(Cl)cn2)c1	16.3%
O=C(N/N=C/c1ccoc1)c1cccc(OC(F)(F)C(F)F)c1	2.32%
Cc1cccc(NC(=O)c2ccc(C(=O)c3ccccc3)o2)c1	9.23%
CCOc1ccc(S(=O)(=O)NCCC(=O)N(C)Cc2ccc(C)o2)cc1	6.62%
COc1nc(Nc2ccc(O)cc2)nc(OC(C(F)(F)F)C(F)(F)F)n1	-2.68%
C=C1CCC[C@]2(C)C[C@H]3OC(=O)C(CN(C)CC(OC)OC)[C@H]3CC12 (some centres unmarked)	20.3%
O=C(CN(c1ccc2c(c1)OCCO2)S(=O)(=O)c1ccccc1)NCC1CCCO1 (centres unmarked)	8.3%
Cc1ccc(NC(=O)C2CCCN2C(=O)Oc2ccccc2)cc1C (centres unmarked)	-1.53%
O=C(O)c1ccc2nc(-c3ccccc3)sc2c1	2.95%
CC(C)C(NC(=O)CCN1C(=O)c2ccccc2C1=O)c1ccccc1 (centres unmarked)	16.6%
CCN1CNC(=S)N(c2cccc(C)c2C)C1	0.6%
CCCCN(C)C(=O)c1nc2ccccn2c1CN1CCN(c2ncccn2)CC1	6.17%
COC(=O)CSc1nnc(CNC(=O)c2cccs2)n1-c1cc(OC)ccc1OC	1.7%
CCOn1c(=O)c(-c2ccc(OC)cc2)[n+]([O-])c2ccccc21	-2.13%
Cc1cccc(OCC(=O)Nc2ccc3c(C)cc(=O)oc3c2)c1	2.78%
C=CCn1c(SCC(=O)Nc2ccc(F)cc2F)nc2c([nH]c3ccccc32)c1=O	18.9%
CN(C(=O)COC(=O)CNC(=O)C1CCCCC1)c1ccccc1	8.7%
C=CCSc1nc2c(c(-c3ccsc3)c1C#N)CN(C)CC2	8.21%

SMILES	hERG current change (%, negative = inhibition) at 1uM
COc1ccccc1NC(=O)CN1CCN(C2c3ccccc3-c3ccccc32)CC1	9.42%
O=C(Nc1ccccc1F)c1cccc(C(=O)Nc2ccccc2F)c1	8.21%
O=C(N/C(=C/c1ccco1)C(=O)N1CCCCC1)c1cccs1	-6.92%
O=C(Cn1cnc2c(cnn2-c2ccccc2)c1=O)N1CCCc2ccccc21	-13.6%
CCN(CC(=O)Nc1c(F)cccc1F)C(=O)CCc1nc2cc(S(=O)(=O)N3CCOCC3)ccc2n1C	9.44%
CC/C(=N\NC(N)=O)c1c(O)[nH]c(=O)[nH]c1=O	15.6%
Cc1csc(=O)n1CCC(=O)OCC(=O)N(CC(C)C)c1c(N)n(Cc2ccccc2)c(=O)[nH]c1=O	11.8%
CN(Cc1ccccc1)c1nc(N)c([N+](=O)[O-])c(NCc2ccccc2)n1	13.2%
O=c1c(-c2ccnn2-c2ccc(F)cc2)cnc2n1CCS2	11.9%
Brc1ccc(CNCc2cccs2)cc1	-23%
CCc1ccc(OCC(=O)NNC(=S)NC(=O)C2CC2)c(Br)c1	8.11%
CCn1c2ccccc2c2cc(NC(=O)COc3ccccc3)ccc21	6.78%
CC1CN(C(=S)SCC(=O)c2ccc([N+](=O)[O-])cc2)CC(C)O1 (centres unmarked)	5.84%
Cc1ccc(S(=O)(=O)N2CCC(C(=O)OCc3ccccc3)CC2)cc1C	16.1%
CCOc1ccc(N(CC(=O)Nc2ccccc2OC)S(C)(=O)=O)cc1	0.0617%
Fc1ccccc1NC(=S)N1CCC(c2ccccc2)C1 (centres unmarked)	9.62%
O=C(NCc1cccc(F)c1)C1CCN(S(=O)(=O)Cc2ccccc2)CC1	9.46%
O=C(NC(=O)c1ccccc1Cl)Nc1ccc(-c2cnco2)cc1	4.15%
CCC(=O)NCc1csc(-c2cccs2)n1	13.7%
O=C(NC(=S)N1CCN(Cc2ccccc2)CC1)c1cccnc1	6.51%
CCc1nnc(NC(=O)CSc2nc(-c3ccccc3)nc3ccccc23)s1	18.8%
Cl.O=C(NCCCn1ccnc1)c1ccc(N2CCCCCC2)c([N+](=O)[O-])c1	-51.6%
O=C(Cn1ncc2c3ccccc3n(Cc3ccc(Cl)cc3)c2c1=O)NCCCN1CCCC1=O	1.67%

SMILES	hERG current change (%, negative = inhibition) at 1uM
CN(C)C(=O)CSCc1c(Cl)cccc1Cl	-0.0762%
CCCC(C)C(=O)N(Cc1ccccc1)c1ccccn1 (centres unmarked)	8.24%
OC(c1ccccc1)C1CN(Cc2ccccc2)CCC1(O)c1ccccc1 (centres unmarked)	8.57%
CN1C(=O)c2ccc(C(=O)Nc3ccc(Br)cn3)cc2C1=O	2.35%
COc1ccc(Cl)cc1NC(=O)CC1CCCC1	10.1%
COC(=O)Cn1c(=NC(=O)c2cc(OC)c(OC)c(OC)c2)sc2cc(OC)ccc21	12%
Cc1ccc(-n2c3c(cc(C(=O)NCc4ccco4)c2=O)C(=O)CCC3)cc1	9.66%
CCc1ccc(C(=O)NCc2cnn(C)c2)s1	-7.29%
COc1ccc(/C=C2/SC(=O)N(CC(=O)Nc3cc(C)on3)C2=O)cc1OC	3.08%
O=C1CC(NCc2ccncc2)C(=O)N1c1ccccc1 (centres unmarked)	10.1%
COC(=O)c1cc(Nc2cc(C)c3ccc(O)cc3n2)cc(C(=O)OC)c1	10.9%
COc1ccccc1CCC(=O)OCC(=O)Nc1ccc(C)c(S(=O)(=O)N2CCCCC2)c1	13%
CCCCc1c(C)nc2cc(-c3ccco3)[nH]n2c1=O	0.37%
CC(C)(C)C(=O)O/N=C1\CCS(=O)(=O)c2sccc21	-0.763%
Cn1c(=O)c(C(=O)c2ccccc2)nc2ccccc21	6.57%
Cc1ccc(C(=O)NCCNC(=O)c2ccco2)cc1C	12.7%
COC(=O)c1ccc(CSc2nnnn2C)o1	12.4%
O=C(Nc1nccs1)c1cc(-c2ccccc2)nc2ccccc12	11.1%
CCOC(=O)C1=C(O)/C(=C/c2ccc(OCC(=O)O)c(OC)c2)SC1=Nc1ccc(OC)cc1	6.59%
O=C(NC1CCCC1)C1CC(O)CN1C(=O)Nc1ccccc1 (centres unmarked)	7.65%
